Reference: the supplement of paper PMC8728848
The list shows a part of the results.

Tests used:
Experiment in all cases: glycan array binding signal (z-score within array); higher = stronger binding
Conditions in all cases: glycan notation: IUPAC condensed, linker removed
[1] = target: Neu5Ac(a2-6)Gal(b1-4)GlcNAc(b1-2)Man(a1-3)[Man(a1-6)]Man(b1-4)GlcNAc(b1-4)GlcNAc
Method in brief: (§1)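 The binding signal is a Z-score computed within each array and averaged over linkers. Arrays of the same protein sequence at different concentrations or buffers were also averaged together. Data originate from 3228 arrays in the Consortium for Functional Glycomics database, kept only where the protein sequence was available.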

[2] = target: Neu5Ac(a2-6)Gal(b1-4)GlcNAc(b1-2)Man(a1-3)[Neu5Ac(a2-3)Gal(b1-4)GlcNAc(b1-2)Man(a1-6)]Man(b1-4)GlcNAc(b1-4)GlcNAc
Method in brief: as §1

[3] = target: Neu5Ac(a2-6)Gal(b1-4)GlcNAc(b1-2)Man(a1-3)[Neu5Ac(a2-6)Gal(b1-4)GlcNAc(b1-2)Man(a1-6)]Man(b1-4)GlcNAc(b1-4)GlcNAc
Method in brief: as §1

[4] = target: Neu5Ac(a2-6)Gal(b1-4)GlcNAc(b1-2)Man(a1-3)[Neu5Ac(a2-6)Gal(b1-4)GlcNAc(b1-2)Man(a1-6)]Man(b1-4)GlcNAc(b1-4)[Fuc(a1-6)]GlcNAc
Method in brief: as §1

[5] = target: Neu5Ac(a2-6)Gal(b1-4)GlcNAc(b1-2)Man(a1-6)Man(b1-4)GlcNAc(b1-4)GlcNAc
Method in brief: as §1

[6] = target: Neu5Ac(a2-6)Gal(b1-4)GlcNAc(b1-2)Man(a1-6)[Gal(b1-4)GlcNAc(b1-2)Man(a1-3)]Man(b1-4)GlcNAc(b1-4)GlcNAc
Method in brief: as §1

[7] = target: Neu5Ac(a2-6)Gal(b1-4)GlcNAc(b1-2)Man(a1-6)[GlcNAc(b1-2)Man(a1-3)]Man(b1-4)GlcNAc(b1-4)GlcNAc
Method in brief: as §1

[8] = target: Neu5Ac(a2-6)Gal(b1-4)GlcNAc(b1-2)Man(a1-6)[Man(a1-3)]Man(b1-4)GlcNAc(b1-4)GlcNAc
Method in brief: as §1

[9] = target: Neu5Ac(a2-6)Gal(b1-4)GlcNAc(b1-2)[Neu5Ac(a2-6)Gal(b1-4)GlcNAc(b1-4)]Man(a1-3)[GlcNAc(b1-4)][Neu5Ac(a2-6)Gal(b1-4)GlcNAc(b1-2)[Neu5Ac(a2-6)Gal(b1-4)GlcNAc(b1-6)]Man(a1-6)]Man(b1-4)GlcNAc(b1-4)GlcNAc
Method in brief: as §1

[10] = target: Neu5Ac(a2-6)Gal(b1-4)GlcNAc(b1-2)[Neu5Ac(a2-6)Gal(b1-4)GlcNAc(b1-4)]Man(a1-3)[GlcNAc(b1-4)][Neu5Ac(a2-6)Gal(b1-4)GlcNAc(b1-4)Man(a1-6)]Man(b1-4)GlcNAc(b1-4)GlcNAc
Method in brief: as §1

[11] = target: Neu5Ac(a2-6)Gal(b1-4)GlcNAc(b1-2)[Neu5Ac(a2-6)Gal(b1-4)GlcNAc(b1-6)]Man(a1-6)[Neu5Ac(a2-6)Gal(b1-4)GlcNAc(b1-2)Man(a1-3)][GlcNAc(b1-4)]Man(b1-4)GlcNAc(b1-4)GlcNAc
Method in brief: as §1

[12] = target: Neu5Ac(a2-6)Gal(b1-4)GlcNAc(b1-3)Gal(b1-3)GlcNAc
Method in brief: as §1

[13] = target: Neu5Ac(a2-6)Gal(b1-4)GlcNAc(b1-3)Gal(b1-4)GlcNAc
Method in brief: as §1

[14] = target: Neu5Ac(a2-6)Gal(b1-4)GlcNAc(b1-3)Gal(b1-4)GlcNAc(b1-2)Man(a1-3)[Neu5Ac(a2-6)Gal(b1-4)GlcNAc(b1-3)Gal(b1-4)GlcNAc(b1-2)Man(a1-6)]GalNAc
Method in brief: as §1

[15] = target: Neu5Ac(a2-6)Gal(b1-4)GlcNAc(b1-3)Gal(b1-4)GlcNAc(b1-3)Gal(b1-4)GlcNAc
Method in brief: as §1

[16] = target: Neu5Ac(a2-6)Gal(b1-4)GlcNAc(b1-3)Gal(b1-4)GlcNAc(b1-3)Gal(b1-4)GlcNAc(b1-2)Man(a1-3)[Neu5Ac(a2-6)Gal(b1-4)GlcNAc(b1-3)Gal(b1-4)GlcNAc(b1-3)Gal(b1-4)GlcNAc(b1-2)Man(a1-6)]GalNAc
Method in brief: as §1

[17] = target: Neu5Ac(a2-6)Gal(b1-4)GlcNAc(b1-3)Gal(b1-4)GlcNAc(b1-3)GalNAc
Method in brief: as §1

[18] = target: Neu5Ac(a2-6)Gal(b1-4)GlcNAc(b1-3)Gal(b1-4)GlcNAc(b1-3)[Neu5Ac(a2-6)Gal(b1-4)GlcNAc(b1-3)Gal(b1-4)GlcNAc(b1-6)]GalNAc
Method in brief: as §1

[19] = target: Neu5Ac(a2-6)Gal(b1-4)GlcNAc(b1-3)Gal(b1-4)GlcNAc(b1-6)[Gal(b1-3)]GalNAc
Method in brief: as §1

[20] = target: Neu5Ac(a2-6)Gal(b1-4)GlcNAc(b1-3)Gal(b1-4)[Fuc(a1-3)]GlcNAc(b1-3)Gal(b1-4)[Fuc(a1-3)]GlcNAc
Method in brief: as §1

[21] = target: Neu5Ac(a2-6)Gal(b1-4)GlcNAc(b1-3)GalNAc
Method in brief: as §1

[22] = target: Neu5Ac(a2-6)Gal(b1-4)GlcNAc(b1-3)[Neu5Ac(a2-6)Gal(b1-4)GlcNAc(b1-6)]GalNAc
Method in brief: as §1

[23] = target: Neu5Ac(a2-6)Gal(b1-4)GlcNAc(b1-6)GalNAc
Method in brief: as §1

[24] = target: Neu5Ac(a2-6)Gal(b1-4)GlcNAc(b1-6)[Gal(b1-3)GlcNAc(b1-3)]Gal(b1-4)Glc
Method in brief: as §1

[25] = target: Neu5Ac(a2-6)Gal(b1-4)GlcNAc(b1-6)[Gal(b1-3)]GalNAc
Method in brief: as §1

[26] = target: Neu5Ac(a2-6)Gal(b1-4)GlcNAc6S
Method in brief: as §1

Neu5Ac(a2-6)GalNAc = target: Neu5Ac(a2-6)GalNAc
Method in brief: as §1

[27] = target: Neu5Ac(a2-6)GalNAc(b1-4)GlcNAc
Method in brief: as §1

[28] = target: Neu5Ac(a2-6)GalNAc(b1-4)GlcNAc6S
Method in brief: as §1

[29] = target: Neu5Ac(a2-6)GlcNAc(b1-4)GlcNAc
Method in brief: as §1

B1: BT3172pd (Bacteroides thetaiotaomicron) (protein)
chain: MLPLRAEHYYYKQISLKEGLPSNVRCILRDEQGFIWIGTKAGLGKFDGHQLKRYKHQANDPHSLLHNLIYQIAEDKQHNIWILTEKGIARYQQQSNNFTFPTDEEGNYITAYSFCLVPDGILFGGKDRIYKYSYKDSSLRLLQYFNANSFKITALSVWDSKTLLCCSRWTGLYLVDLQTGEHRRPPFDCGPEITSMITDSKNRIWIAPYSGGLRCYSRDGKLSASYTTHNSSLSNDIVLSLAEREEQLWIGTDGGGINILHPETGEISQLEYIPGRENYSLPANSILCLHNDYNNNVWAGSTCNGLISIREVSMKTYTDVVPGNDRGLSNGTVRSLYRQSPDSIWIGTDGGGINLFSPHTEKFTHYSSTWGDKVAFISGFTPGKLLISLFSKGVFVFNPATGEKQPFTIIDKETTTRLCNRGKSVNLYQNTPNTVLFLGDHIYQYHLKEKKFSTITEEEGKDIVGTLVPFDHQENLTYINDIKHIYELDDQTSRLKTVFECYTDTVISSVSHDEQGHFWIGSNFGLIHYDPVLKSRTLVPTNLFTEINMVLCDQKGKVWIGVDNMLFAYFIKEQKFVLFGESNGAIQNEYLPNARLVNEQGDAYIGGVKGMLRIDGQLLLNTSEMPELQLLDITINGESANHEWYNHPAKISVPWNSNISIRIMSREEDIFRQKIYRYQIEGLNNEYTESYNPELVIRSLLPGSYRIMASCTAKDGSWIPDQQVLELTVLPPWYRTHHHHHH
glycan array binding signal (z-score) [1]: -0.184 | glycan array binding signal (z-score) [2]: -0.143 | glycan array binding signal (z-score) [3]: -0.353 | glycan array binding signal (z-score) [4]: -0.072 | glycan array binding signal (z-score) [5]: 0.057 | glycan array binding signal (z-score) [6]: 0.765 | glycan array binding signal (z-score) [7]: -0.213 | glycan array binding signal (z-score) [8]: -0.052 | glycan array binding signal (z-score) [9]: -0.422 | glycan array binding signal (z-score) [10]: -0.545 | glycan array binding signal (z-score) [11]: -0.466 | glycan array binding signal (z-score) [12]: -0.335 | glycan array binding signal (z-score) [13]: -0.612 | glycan array binding signal (z-score) [14]: -0.692 | glycan array binding signal (z-score) [15]: -0.644 | glycan array binding signal (z-score) [16]: -0.613 | glycan array binding signal (z-score) [17]: -0.27 | glycan array binding signal (z-score) [18]: 0.33 | glycan array binding signal (z-score) [19]: 6.02 | glycan array binding signal (z-score) [20]: -0.079 | glycan array binding signal (z-score) [21]: 0.187 | glycan array binding signal (z-score) [22]: 5.76 | glycan array binding signal (z-score) [23]: 0.094 | glycan array binding signal (z-score) [24]: -0.495 | glycan array binding signal (z-score) [25]: 1.55 | glycan array binding signal (z-score) [26]: -0.449 | glycan array binding signal (z-score) (Neu5Ac(a2-6)GalNAc): 0.143 | glycan array binding signal (z-score) [27]: 0.093 | glycan array binding signal (z-score) [28]: 0.158 | glycan array binding signal (z-score) [29]: 0.054
